The other results are listed elsewhere or left out. Cut-off read from the data, not from the text of the source: active = 3.2 or more and inactive = the rest. Most of these values are background signal.
How the values were obtained:
Test in all cases: enrichment score (SH2-bound / input frequency) (ratio); bacterial display of known human phosphotyrosine sites (pTyr-Var adds point mutants) read by sequencing; higher = stronger binding; tyrosines were phosphorylated by kinases first
Details in all cases: peptide library: pTyr-Var
[1] = biological target: SHP2 C-SH2 domain E139D
[2] = biological target: SHP2 C-SH2 domain wild-type
[3] = biological target: SHP2 N-SH2 domain L43F
[4] = biological target: SHP2 N-SH2 domain T42A
[5] = biological target: SHP2 N-SH2 domain T52S
[6] = biological target: SHP2 N-SH2 domain wild-type

Measured: enrichment score
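Note: displayed peptides selected on beads carrying the immobilized SH2 domain, with library peptides lacking any tyrosine serving as negative controls.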

QMEKICTQQIQ [CCNB1IP1_Y125_Y125C]
inactive: [1] 0.986 | [2] 1.06 | [3] 1.06 | [4] 0.895 | [5] 0.966 | [6] 1.31

IPKTWYSAEQF [CD207_Y217]
inactive: [1] 0.987 | [2] 0.691 | [3] 0.795 | [4] 0.68 | [5] 0.656 | [6] 0.801

NELTFYCCKKD [CD59_Y87_YF]
inactive: [1] 0.746 | [2] 0.895 | [3] 0.68 | [4] 0.641 | [5] 0.737 | [6] 0.93

TVFSDYLHPQY [CCPG1_Y569]
inactive: [1] 1.01 | [2] 0.833 | [3] 1 | [4] 0.963 | [5] 1 | [6] 1.35

VPLLEYYWDIF [CDAN1_Y712_R714W]
inactive: [1] 2.97 | [2] 2.61 | [3] 3.01 | [4] 2.58 | [5] 3.02 | [6] 2.68

RDHYGYRQSVT [CD55_Y245]
inactive: [1] 0.807 | [2] 0.587 | [3] 0.675 | [4] 0.553 | [5] 0.741 | [6] 0.97

MKSIKYMDKEV [CCDC60_Y41_I46V]
inactive: [1] 0.775 | [2] 0.807 | [3] 0.732 | [4] 0.532 | [5] 0.649 | [6] 0.659

VPLLEYFWDIF [CDAN1_Y712_R714W_YF]
active: [1] 5.01 | [2] 4.51 | [3] 4.98 | [4] 3.74 | [5] 4.67 | [6] 4.04

EFGRRYGFSRQ [CCDC93_Y209_YF]
inactive: [1] 0.63 | [2] 0.308 | [3] 0.327 | [4] 0.49 | [5] 0.326 | [6] 0.397

RVEDAYILTCN [CCT6A_Y229]
inactive: [1] 0.993 | [2] 0.813 | [3] 1.05 | [4] 0.722 | [5] 0.727 | [6] 0.6

RVEDACILTCN [CCT6A_Y229_Y229C]
inactive: [1] 0.781 | [2] 0.896 | [3] 0.904 | [4] 0.877 | [5] 0.892 | [6] 0.794

GEHSIYSTVNN [CD55_Y266_C267S]
inactive: [1] 0.589 | [2] 0.915 | [3] 0.814 | [4] 0.55 | [5] 0.669 | [6] 0.935

VEGISYDFIPT [CBS_Y308_G307S]
inactive: [1] 0.909 | [2] 1.19 | [3] 0.943 | [4] 0.815 | [5] 0.892 | [6] 0.847

NELTYYCYKKD [CD59_Y87_C89Y]
inactive: [1] 0.716 | [2] 0.994 | [3] 0.727 | [4] 0.794 | [5] 0.908 | [6] 1.06

VPLLEYFRDIF [CDAN1_Y712_YF]
active: [1] 3.65 | [3] 3.23 | [6] 3.62
inactive: [2] 3.15 | [4] 2.95 | [5] 3.1

GRLPEYNTRIA [CCDC151_Y542]
inactive: [1] 0.832 | [2] 0.771 | [3] 0.63 | [4] 0.619 | [5] 0.696 | [6] 0.763

PEYVVYKPQME [CCRL2_Y170_F167Y]
inactive: [1] 1.27 | [2] 0.779 | [3] 1.1 | [4] 1.18 | [5] 0.938 | [6] 1.02

SHLSAYPALEG [CD5_Y465]
inactive: [1] 0.753 | [2] 0.711 | [3] 0.715 | [4] 0.658 | [5] 0.672 | [6] 0.883

ENELTYFCCKK [CD59_Y86_YF]
inactive: [1] 0.566 | [2] 0.525 | [3] 0.643 | [4] 0.635 | [5] 0.644 | [6] 0.745

MKSIKYMDKEI [CCDC60_Y41]
inactive: [1] 0.953 | [2] 1.08 | [3] 0.639 | [4] 0.666 | [5] 1.24 | [6] 1.07

SLQSEYVHYGG [CDC14A_Y591]
inactive: [1] 0.536 | [2] 0.49 | [3] 0.54 | [4] 0.457 | [5] 0.505 | [6] 0.443

RNDQVYQPLRD [CD3D_Y149]
inactive: [1] 0.631 | [2] 0.625 | [3] 0.541 | [4] 0.579 | [5] 0.535 | [6] 0.634

VPLLEYYRDIF [CDAN1_Y712]
inactive: [1] 1.81 | [2] 1.66 | [3] 1.68 | [4] 1.58 | [5] 1.93 | [6] 1.48

TVSSDYLHPQY [CCPG1_Y569_F566S]
inactive: [1] 0.727 | [2] 0.594 | [3] 0.975 | [4] 0.604 | [5] 0.621 | [6] 0.635

RKQQLYTAMEE [CCDC39_Y593]
inactive: [1] 0.684 | [2] 0.779 | [3] 0.704 | [4] 0.741 | [5] 0.666 | [6] 0.654

KKRSVYLKVLF [CC2D2A_Y683]
inactive: [1] 0.586 | [2] 0.591 | [3] 0.656 | [4] 0.929 | [5] 0.716 | [6] 0.885

ENELTYYCYKK [CD59_Y86_C89Y]
inactive: [1] 0.945 | [2] 1.17 | [3] 0.846 | [4] 0.737 | [5] 0.882 | [6] 1.19

HTVEDYQAIVD [CCT7_Y263]
inactive: [1] 0.585 | [2] 0.776 | [3] 0.791 | [4] 0.694 | [5] 0.7 | [6] 0.798

HAVEDYQAIVD [CCT7_Y263_T259A]
inactive: [1] 0.618 | [2] 0.768 | [3] 0.608 | [4] 0.582 | [5] 0.685 | [6] 0.87

SRLSAYPALEG [CD5_Y465_H461R]
inactive: [1] 0.642 | [2] 0.475 | [3] 0.532 | [4] 0.682 | [5] 0.589 | [6] 0.752

EFGRRYGFSCQ [CCDC93_Y209_R213C_YF]
inactive: [1] 0.578 | [2] 0.628 | [3] 0.675 | [4] 0.682 | [5] 0.571 | [6] 0.795

AKLKDYFIFNK [CCDC42_Y149_YF]
inactive: [1] 1.69 | [2] 0.957 | [3] 1.37 | [4] 1.06 | [5] 1.07 | [6] 1.18

STAPSYGNPSS [CD19_Y378_G373S]
inactive: [1] 0.455 | [2] 0.576 | [3] 0.448 | [4] 0.546 | [5] 0.569 | [6] 0.333

GQRDLYSGLNQ [CD3E_Y199]
inactive: [1] 1.18 | [2] 0.832 | [3] 0.821 | [4] 0.727 | [5] 0.729 | [6] 0.772

ALETLYKKAVK [CC2D2A_Y381_E376A]
inactive: [1] 0.846 | [2] 0.545 | [3] 0.724 | [4] 0.559 | [5] 0.529 | [6] 0.655

GQRDLYSGLNE [CD3E_Y199_Q204E]
inactive: [1] 0.664 | [2] 0.554 | [3] 0.642 | [4] 0.555 | [5] 0.682 | [6] 0.674

ESDGAYIHRMQ [CCDC137_Y125]
inactive: [1] 0.563 | [2] 0.575 | [3] 0.473 | [4] 0.628 | [5] 0.567 | [6] 0.716

Reference: the supplement of paper PMC10369915
